Measurements published in publication PMC4336329 (PLoS ONE, 2015).
Hit rate of the full screen: of about 310,000 compounds, about 14,000 (4.5%) showed an effect of 50% or more. Effects have a minus sign here. Some of the results follow.

Each compound was assayed against human ether-à-go-go-related gene (hERG) potassium channel (human, UniProt Q12809) (assay: primary screen, population patch clamp on CHO cells stably expressing hERG).
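Further: peak tail current of the secondary pulse compared with the same well before compound.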

human ether-à-go-go-related gene (hERG) potassium channel, sequence (Q12809 whole entry, looked up): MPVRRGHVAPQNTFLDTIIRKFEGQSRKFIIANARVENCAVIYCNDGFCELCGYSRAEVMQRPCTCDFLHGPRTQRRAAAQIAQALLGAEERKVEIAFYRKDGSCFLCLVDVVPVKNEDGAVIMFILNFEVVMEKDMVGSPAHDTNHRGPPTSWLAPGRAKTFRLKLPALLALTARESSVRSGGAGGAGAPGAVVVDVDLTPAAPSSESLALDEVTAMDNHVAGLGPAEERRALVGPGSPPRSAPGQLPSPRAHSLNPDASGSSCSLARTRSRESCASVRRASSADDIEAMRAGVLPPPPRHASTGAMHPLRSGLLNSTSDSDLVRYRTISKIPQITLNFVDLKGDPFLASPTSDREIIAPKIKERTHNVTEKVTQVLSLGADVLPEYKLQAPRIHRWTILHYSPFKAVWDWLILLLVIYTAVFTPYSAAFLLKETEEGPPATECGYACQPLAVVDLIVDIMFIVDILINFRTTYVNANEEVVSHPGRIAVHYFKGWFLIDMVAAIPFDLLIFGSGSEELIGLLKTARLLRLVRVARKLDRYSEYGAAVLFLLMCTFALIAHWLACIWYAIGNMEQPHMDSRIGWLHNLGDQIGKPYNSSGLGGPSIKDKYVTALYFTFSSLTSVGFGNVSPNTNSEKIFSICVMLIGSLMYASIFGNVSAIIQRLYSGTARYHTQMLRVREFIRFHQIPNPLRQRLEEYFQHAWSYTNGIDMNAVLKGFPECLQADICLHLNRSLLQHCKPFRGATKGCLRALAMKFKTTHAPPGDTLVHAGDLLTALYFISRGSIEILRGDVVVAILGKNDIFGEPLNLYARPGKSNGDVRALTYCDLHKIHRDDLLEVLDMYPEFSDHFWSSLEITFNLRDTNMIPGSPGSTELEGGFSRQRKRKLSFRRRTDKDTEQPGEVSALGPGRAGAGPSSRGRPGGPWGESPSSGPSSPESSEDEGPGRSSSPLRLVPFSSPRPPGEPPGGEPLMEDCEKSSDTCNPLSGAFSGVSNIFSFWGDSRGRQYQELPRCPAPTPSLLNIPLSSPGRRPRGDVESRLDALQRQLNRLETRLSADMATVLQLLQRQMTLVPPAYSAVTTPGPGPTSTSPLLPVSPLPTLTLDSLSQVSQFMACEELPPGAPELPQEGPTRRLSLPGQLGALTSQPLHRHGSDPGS

Compound | hERG current change (%, negative = inhibition) at 10uM
Cc1nc2scc(C)n2c(=O)c1S(=O)(=O)N1CCN(c2ccc(F)cc2)CC1 | -6.66%
Cc1ccc(S(=O)(=O)N2CCC(C(=O)Nc3ccc4c(c3)COC4=O)CC2)cc1 | 3.99%
CCOC(=O)NC(=O)/C(C=Nc1ccc(Cl)cc1)=C(\C)O | 14.4%
Cc1nc(NCc2cccnc2)c2c3c(sc2n1)CCCC3 | -70.2%
Cc1ccc(C(=O)Nc2ccc(Br)cc2)cc1S(=O)(=O)Nc1ccccn1 | -4.95%
COc1cccc(-c2cc(C(=O)N3CCN(c4ccc(F)cc4)CC3)no2)c1 | 10.9%
O=C(O)c1ccc2c(=O)n3c(nc2c1)/C(=C/c1ccc(Cl)c(Cl)c1)CC3 | 12.1%
COc1ccccc1NC(=O)c1ccc(Br)c(S(=O)(=O)N2CCCC2)c1 | -2.36%
COC1(C)CC2C(CC1OC(=O)c1cc([N+](=O)[O-])cc([N+](=O)[O-])c1)C2(C)C (stereo not drawn) | -11.6%
CCOc1ccc(C2C(C(=O)NC)=C(C)Nc3nc4ccccc4n32)cc1OC (stereo not drawn) | 11.9%
Cc1cccc(-n2cc(CN3CCN(c4ccccn4)CC3)c(-c3cccc(F)c3)n2)c1 | 14.6%
CC(=O)c1cc2c(=O)c3cc(C)ccc3oc2nc1C | -7.48%
COCCNC(=S)N(CCc1c(C)[nH]c2ccccc12)Cc1cccnc1 | -8.41%
OCC[C@@H]1C[C@H](O)[C@@H](O)[C@]2(CCCCO2)O1 | 21.2%
O=C(Nc1cccc(S(=O)(=O)NC2=NCCCCC2)c1)c1cc(-c2ccccc2)nc2ccccc12 | -10.8%
CCOC(=O)c1c(C)[nH]c(C(=O)N2CCC(C(=O)OCC)CC2)c1C | 14.5%
CCCCOc1ccc(CSC2=NCCN2)cc1[N+](=O)[O-].Cl | -68.7%
O=C(O)Cn1ccc2ccccc21 | 24.6%
CCc1ccc(N2CC(C(=O)Nc3cc(C)ccc3F)CC2=O)cc1 (stereo not drawn) | -0.952%

Compound | hERG current change (%, negative = inhibition) at 10uM
O=C(NCCOc1ccc(Cl)cc1)C1CC(=O)N(c2ccc3c(c2)OCCO3)C1 (stereo not drawn) | -27.9%
CC(C)Nc1nc(-c2ccccc2)nnc1-c1ccccc1 | -15.5%
Cc1ccc(NC(=O)c2cc3ccccc3o2)cc1 | 6.1%
O=C(O)C(=O)O.OCCNCCCCOc1cccc(Br)c1 | -12.4%
CCOc1ccc(NS(=O)(=O)c2coc(C(N)=O)c2)cc1 | 11%
COC(=O)NCC(C)OC(=O)Nc1ccc(Cl)cc1 (stereo not drawn) | 11.3%
CC1CCCC(C)N1C(=O)COC(=O)Cn1cnc2c1c(=O)n(C)c(=O)n2C (stereo not drawn) | 11.9%
O=C(Cn1cc(/C=C\[N+](=O)[O-])c2ccccc21)Nc1ccccc1 | 4.86%
COc1ccc2[nH]c3c(c2c1)CCN1C(=O)N([C@@H](C)C(=O)NCC2CCCO2)C(=O)[C@]31C (stereo partly drawn) | -6.78%
CC1(C)CC(=O)C2=C(C1)NC(Nc1nc3ccccc3o1)=NC2c1ccccn1 (stereo not drawn) | -25%
CCN(C(=O)COC(=O)CNS(=O)(=O)c1ccc2ccccc2c1)C1CCCCC1 | -18.2%
CCCc1c(NC(=O)Nc2ccc(F)cc2)cnn1-c1ccccc1 | 8.19%
O=C(CCN1C(=O)C2CC=CCC2C1=O)NC1CCCCC1 (stereo not drawn) | -9.5%
Cc1cc(=O)[nH]c2c1c(=O)[nH]n2C1CC(C)N(C)CC1C (stereo not drawn) | 7.39%
O=C(NCCc1ccccn1)C1CC(=O)N(Cc2ccccc2Cl)C1 (stereo not drawn) | -1.93%
CCOC(=O)c1oc2ccc(S(=O)(=O)Nc3ccc4c(c3)n(C)c(=O)n4C)cc2c1C | -11.4%
CC(=O)NC(O)C(=O)c1ccccc1 (stereo not drawn) | 26%
Cc1cc(C2C(C#N)=C(N)Oc3n[nH]c(C)c32)c(C)s1 (stereo not drawn) | 21%
CCOc1ccccc1CNC(=O)CCC(=O)N1Cc2ccccc2Oc2ncccc21 | -3.62%

Compound | hERG current change (%, negative = inhibition) at 10uM
CC(=O)Nc1cccc(S(C)(=O)=O)c1 | -5.87%
Cc1ccc(S(=O)(=O)N2CCN(C(=O)COC(=O)c3ccc(Br)o3)CC2)c(C)c1 | -10.3%
Cc1cccc2sc(NS(C)(=O)=O)nc12 | 19.1%
CC1(C)CC2CC(C)(CN2S(=O)(=O)c2cccc(N)c2)C1 (stereo not drawn) | 11.8%
Cc1csc(SCC(=O)Nc2cc(S(=O)(=O)N3CCCC3)ccc2Cl)n1 | -24.4%
COc1ccc(/C=C/C(=O)c2ccccc2O)cc1CN1CCOCC1 | -17.7%
Cc1nnc2n(-c3ccccc3)c(=O)c3c4c(sc3n12)COC(C)(C)C4 | -6.75%
C=CCN1CCN(C(=O)c2ccc3c(c2)OCO3)CC1 | 24.1%
O=C(COC(=O)c1cccnc1Nc1ccccc1F)NC1CC1 | -0.164%
Cc1ccc(Oc2ncccc2/C=N/OCc2ccc(Cl)c(Cl)c2)cc1 | 16.9%
CCOC(=O)c1ccc2[nH]c(-c3ccc(S(=O)(=O)F)cc3)cc(=O)c2c1 | 12.6%
C=CCn1c(-c2cccc([N+](=O)[O-])c2)n[nH]c1=S | 15.1%
O=C(Cc1ccc([N+](=O)[O-])cc1)N1CCc2ccccc2C1 | -17.7%
Cc1noc(C)c1COc1ccccc1C(=O)NNC(=O)c1ccccc1F | -36.9%
O=C(CC12CC3CC(CC(C3)C1)C2)NCCN1CCOCC1 | -4.84%
Cc1cc(Cn2nc(C(=O)NCc3cccs3)cc2-c2ccccc2)on1 | -40.8%
Cc1cc(SCC(=O)c2cccc([N+](=O)[O-])c2)nc(=O)[nH]1 | 12.4%
O=C(CCSCc1ccccc1F)N1CCN(c2ccccn2)CC1 | -27.2%
Cl.O=C(NN1C(=O)CSC1=S)c1cccnc1 | 13%
